Laboratory results: paper PMC12245028
No constants are given. Whether binding was seen depends on the method and setting. In cells and extracts the contact can be indirect. Some binding calls cover weakened binding; strength is not graded here.

Chains of the proteins cited; added tags and fusions are not shown. Lines headed by an entry give the natural chain unless they say otherwise; changes in a name come on top.
UniProt Q04206: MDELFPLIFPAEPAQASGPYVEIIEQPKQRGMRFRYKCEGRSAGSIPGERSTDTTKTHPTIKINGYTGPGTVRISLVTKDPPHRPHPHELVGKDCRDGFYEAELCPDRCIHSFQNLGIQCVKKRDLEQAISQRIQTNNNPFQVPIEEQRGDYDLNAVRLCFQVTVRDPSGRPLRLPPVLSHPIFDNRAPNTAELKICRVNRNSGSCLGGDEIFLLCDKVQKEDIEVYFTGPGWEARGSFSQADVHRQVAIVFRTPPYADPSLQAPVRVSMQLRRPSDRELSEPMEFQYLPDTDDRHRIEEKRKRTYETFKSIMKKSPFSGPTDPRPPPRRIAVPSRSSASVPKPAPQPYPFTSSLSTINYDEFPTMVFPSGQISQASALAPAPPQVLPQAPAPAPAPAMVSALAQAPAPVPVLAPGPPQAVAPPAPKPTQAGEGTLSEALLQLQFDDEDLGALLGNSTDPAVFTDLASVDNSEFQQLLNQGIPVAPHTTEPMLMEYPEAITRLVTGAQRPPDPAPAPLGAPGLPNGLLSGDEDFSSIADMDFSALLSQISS
UniProt P47810: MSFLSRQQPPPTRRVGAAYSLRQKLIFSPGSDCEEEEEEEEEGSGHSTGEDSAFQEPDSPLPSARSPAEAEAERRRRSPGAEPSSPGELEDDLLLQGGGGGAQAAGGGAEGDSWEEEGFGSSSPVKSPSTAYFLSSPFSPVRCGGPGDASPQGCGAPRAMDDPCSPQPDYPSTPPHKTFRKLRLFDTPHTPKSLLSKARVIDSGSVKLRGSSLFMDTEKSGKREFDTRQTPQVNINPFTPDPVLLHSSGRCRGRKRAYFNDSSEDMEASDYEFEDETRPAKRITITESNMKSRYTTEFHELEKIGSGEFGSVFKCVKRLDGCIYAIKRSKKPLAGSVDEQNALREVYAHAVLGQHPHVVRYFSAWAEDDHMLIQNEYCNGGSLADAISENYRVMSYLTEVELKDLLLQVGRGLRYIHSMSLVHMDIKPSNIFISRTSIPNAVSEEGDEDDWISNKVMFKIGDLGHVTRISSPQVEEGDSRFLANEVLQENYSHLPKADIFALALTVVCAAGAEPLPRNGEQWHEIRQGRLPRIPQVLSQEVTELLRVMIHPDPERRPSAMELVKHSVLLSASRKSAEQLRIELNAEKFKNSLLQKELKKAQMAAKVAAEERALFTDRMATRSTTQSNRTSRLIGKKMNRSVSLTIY
UniProt P30291: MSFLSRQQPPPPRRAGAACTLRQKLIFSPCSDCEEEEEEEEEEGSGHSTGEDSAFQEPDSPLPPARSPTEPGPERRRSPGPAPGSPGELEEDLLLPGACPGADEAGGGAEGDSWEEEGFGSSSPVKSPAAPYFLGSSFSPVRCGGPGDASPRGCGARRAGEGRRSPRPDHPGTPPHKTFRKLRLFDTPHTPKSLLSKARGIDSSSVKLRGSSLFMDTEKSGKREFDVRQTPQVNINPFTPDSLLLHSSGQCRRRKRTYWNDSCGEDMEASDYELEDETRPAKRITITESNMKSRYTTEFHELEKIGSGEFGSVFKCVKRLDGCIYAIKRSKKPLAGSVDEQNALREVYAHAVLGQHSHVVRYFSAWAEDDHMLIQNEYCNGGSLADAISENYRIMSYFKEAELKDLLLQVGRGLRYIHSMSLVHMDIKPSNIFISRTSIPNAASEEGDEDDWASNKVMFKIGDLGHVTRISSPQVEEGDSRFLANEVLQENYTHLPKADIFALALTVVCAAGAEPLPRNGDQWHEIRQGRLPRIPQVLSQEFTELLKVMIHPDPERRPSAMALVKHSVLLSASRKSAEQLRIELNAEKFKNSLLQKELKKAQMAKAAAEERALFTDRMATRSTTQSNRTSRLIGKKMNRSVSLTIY
UniProt Q04207: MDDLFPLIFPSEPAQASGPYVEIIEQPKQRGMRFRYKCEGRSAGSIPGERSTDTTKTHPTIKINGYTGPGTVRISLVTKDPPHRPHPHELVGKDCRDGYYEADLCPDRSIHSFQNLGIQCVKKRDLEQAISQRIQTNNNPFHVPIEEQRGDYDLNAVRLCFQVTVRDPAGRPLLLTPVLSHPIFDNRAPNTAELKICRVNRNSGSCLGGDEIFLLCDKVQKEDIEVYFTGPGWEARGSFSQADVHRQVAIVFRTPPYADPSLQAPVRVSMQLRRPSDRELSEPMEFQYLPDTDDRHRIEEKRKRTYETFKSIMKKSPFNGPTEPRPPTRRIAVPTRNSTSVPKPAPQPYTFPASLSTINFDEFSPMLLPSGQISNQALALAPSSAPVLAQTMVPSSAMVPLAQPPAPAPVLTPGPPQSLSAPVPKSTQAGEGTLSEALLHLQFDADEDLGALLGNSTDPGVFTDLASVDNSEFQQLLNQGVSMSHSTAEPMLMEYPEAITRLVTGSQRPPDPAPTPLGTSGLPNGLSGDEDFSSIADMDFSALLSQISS

Legend:
Flag‐p65^WT = Flag‐p65^WT (UniProt Q04206); test: co-IP; 293T cells transfected with Flag-p65 and HA-WEE1 or the WEE1 kinase domain construct; Flag-p65 immunoprecipitated by anti-Flag antibodies
[1] = molecular target: WEE1 (mouse, endogenous) (mouse (endogenous in MPMs and aortic tissue)) (UniProt P47810); test: co-IP; aortic tissues of LFD- and HFD-fed ApoE−/− mice; WEE1 immunoprecipitated by anti-WEE1 antibody; blot for p65
[2] = molecular target: WEE1 (mouse, endogenous) (mouse (endogenous in MPMs and aortic tissue)) (UniProt P47810); test: co-IP; mouse primary peritoneal macrophages challenged with oxLDL (50 µg mL^-1) for 1 h; WEE1 immunoprecipitated by anti-WEE1 antibody; blot for p65
HA‐WEE1^WT [3] = molecular target: HA‐WEE1^WT (UniProt P30291); test: co-IP; 293T cells transfected with HA-WEE1 and Flag-p65 or one of two p65 domain constructs; HA-WEE1 immunoprecipitated by anti-HA antibodies
HA‐WEE1^WT [4] = molecular target: HA‐WEE1^WT (UniProt P30291); test: co-IP; 293T cells pretreated with PTD-p65 peptide (100 µM) or vehicle (DMSO, 1‰) for 1 h, then transfected with HA-WEE1 for 24 h; HA-WEE1 immunoprecipitated by anti-HA antibodies; blot for p65
HA‐WEE1^WT [5] = molecular target: HA‐WEE1^WT (UniProt P30291); test: condition: only cells pretreated with MK1775 (10 µM); co-IP; 293T cells pretreated with MK1775 (10 µM) for 1 h, then transfected with HA-WEE1 for 24 h; HA-WEE1 immunoprecipitated by anti-HA antibodies; blot for p65
HA‐WEE1^S642A = HA‐WEE1^S642A (UniProt P30291); test: co-IP; 293T cells transfected with HA-WEE1 (WT or S642A); immunoprecipitated by anti-HA antibody, Protein A+G agarose; blot for endogenous p65 and PRDX1; IgG control
HA‐WEE1^WT [6] = molecular target: HA‐WEE1^WT (UniProt P30291); test: as above

Substance: HA‐WEE1^KD (from UniProt P30291 299-569) (domain or fragment)
- binding (Flag‐p65^WT): binds

Substance: NF‐κB p65 subunit (mouse, endogenous) (from UniProt Q04207 1-549)
- binding [1]: binds
- binding [2]: binds

Substance: Flag‐p65^RHD (from UniProt Q04206 19-306) (domain or fragment)
- binding (HA‐WEE1^WT [3]): binds

Substance: NF‐κB p65 subunit (RELA, Transcription factor p65) (from UniProt Q04206 1-551)
- binding (HA‐WEE1^WT [4]): binds
- binding (HA‐WEE1^WT [5]): no binding
- binding (HA‐WEE1^S642A): no binding
- binding (HA‐WEE1^WT [6]): binds
